The numbers were not newly measured in publication PMC13415951 (Journal of Experimental Botany, 2026), which cites them from elsewhere.

For this data set the following is noted: ref PubChem (https://pubchem.ncbi.nlm.nih.gov/, accessed September 2025); cited from earlier work.

For `CC1(C)CCC[C@]2(C)[C@@H]3[C@H]1[C@@H](O)[C@@]2(C)C[C@H]3O` [CUL, culmorin], the XLogP3-AA is given as 3.3. Regarding `CC1=C[C@H]2O[C@@H]3[C@H](O)C[C@](C)([C@@]2(CO)[C@H](O)C1=O)[C@]31CO1` [DON, deoxynivalenol], the XLogP3-AA result was “–0.7”.
